pKi: −log10 of the molar value. *1 amine or outer side, *2 acyl side, *3 side chain or, on linkers, in order; H or OH if unused. Where a SMILES comes first, the peptide text is derived from it. [ ]: non-standard residue; d: D form. The star is where a group is joined. ξ: configuration not given here. ξ(3-Amino-2-oxopentanoyl) = CCC(N[*:1])C(=O)C(=O)[*:2]; ξPhg(3,5-(OMe)2) = COc1cc(OC)cc(C(N)C(=O)O)c1; ξLeu(ψCOCO) = CC(C)CC(N[*:1])C(=O)C(=O)[*:2]; ξPhg(3-Cl) = NC(C(=O)O)c1cccc(Cl)c1; ξPhg(3-F) = NC(C(=O)O)c1cccc(F)c1; Hyp = O=C(O)[C@@H]1C[C@@H](O)CN1; X2 = CCCC(N[*:1])C(=O)C(=O)[*:2]; Aad = N[C@@H](CCCC(=O)O)C(=O)O; X14 = O=C(O)Cc1ccc(CC(=O)*)cc1; dPhg = N[C@@H](C(=O)O)c1ccccc1; Chg = N[C@H](C(=O)O)C1CCCCC1; Phg = N[C@H](C(=O)O)c1ccccc1; X17 = O=C(O)Cc1ccccc1CC(=O)*; ξChg = NC(C(=O)O)C1CCCCC1; ξPhg = NC(C(=O)O)c1ccccc1; PhAc = O=C(Cc1ccccc1)*; ξNle = CCCCC(N)C(=O)O; Bn = c1ccc(C*)cc1; OtBu = CC(C)(C)O*; Ms = CS(=O)(=O)*; tBu = CC(C)(C)*

The experiment addresses HCV NS3/NS4A protease (strain 1a) (Hepatitis C virus genotype 1a, UniProt P27958). Briefly: biochemical. The note with it: Compounds prepared by Solid Phase Synthesis, Table 3; read-out: Ki* CLASS.
The pKi is −log10 of the Ki, conventionally taken in molar units. As for `CCCC(NC(=O)[C@@H]1C[C@@H](OC(C)(C)C)CN1C(=O)[C@@H](NC(=O)[C@@H](NS(C)(=O)=O)C(C)C)C1CCCCC1)C(=O)C(=O)NCC(=O)NC(C(N)=O)c1cc(OC)cc(OC)c1` (some centres unmarked) (Ms-V[Chg][Hyp](tBu)[X2]G[ξPhg(3,5-(OMe)2)]-NH2), the pKi was 6.00 to 7.00.

As to `CCCC(NC(=O)[C@@H]1C[C@@H](OC(C)(C)C)CN1C(=O)[C@@H](NC(=O)[C@@H](NS(C)(=O)=O)C(C)C)C1CCCCC1)C(=O)C(=O)NCC(=O)NC(C(N)=O)c1cccc(F)c1` (some centres unmarked) (Ms-V[Chg][Hyp](tBu)[X2]G[ξPhg(3-F)]-NH2), the pKi was 6.00 to 7.00.

For the molecule `CCCC(NC(=O)[C@@H]1C[C@@H](OCc2ccccc2)CN1C(=O)[C@H](CCCC(=O)OC(C)(C)C)NC(=O)Cc1ccccc1)C(=O)C(=O)NCC(=O)N[C@H](C(N)=O)c1ccccc1` (some centres unmarked) (PhAc-[Aad](OtBu)[Hyp](Bn)[X2]G[Phg]-NH2), the negative-log Ki (pKi) is less than 6.00.

For `CCCC(NC(=O)[C@@H]1C[C@@H](OCc2ccccc2)CN1C(=O)[C@H](CCCC(=O)O)NC(=O)Cc1ccccc1)C(=O)C(=O)NCC(=O)N[C@H](C(N)=O)c1ccccc1` (some centres unmarked) (PhAc-[Aad][Hyp](Bn)[X2]G[Phg]-NH2), the pKi is 6.00 to 7.00.

As for `CCCC(NC(=O)[C@@H]1C[C@@H](OC(C)(C)C)CN1C(=O)[C@@H](NC(=O)Cc1ccccc1)C1CCCCC1)C(=O)C(=O)NCC(=O)N[C@H](C(N)=O)c1ccccc1` (some centres unmarked) (PhAc-[Chg][Hyp](tBu)[X2]G[Phg]-NH2), the pKi is 7.00 to 9.00.

Consider `CCCC(NC(=O)[C@@H]1C[C@@H](OC(C)(C)C)CN1C(=O)[C@@H](NC(=O)Cc1ccccc1)C1CCCCC1)C(=O)C(=O)NCC(=O)N[C@H](CC(=O)OC(C)(C)C)C(N)=O` (some centres unmarked) (PhAc-[Chg][Hyp](tBu)[X2]G[dD](OtBu)-NH2), for which the negative-log Ki (pKi) was less than 6.00.

On to `CCCC(NC(=O)[C@@H]1C[C@@H](OC(C)(C)C)CN1C(=O)[C@@H](NC(=O)Cc1ccccc1)C1CCCCC1)C(=O)C(=O)NCC(=O)NC(C(N)=O)c1cccc(Cl)c1` (some centres unmarked) (PhAc-[Chg][Hyp](tBu)[X2]G[ξPhg(3-Cl)]-NH2), for which the negative-log Ki (pKi) is 6.00 to 7.00.

As for `CCC(NC(=O)[C@@H]1C[C@@H](OC(C)(C)C)CN1C(=O)[C@@H](NC(=O)Cc1ccccc1)C1CCCCC1)C(=O)C(=O)NCC(=O)N[C@H](C(N)=O)c1ccccc1` (some centres unmarked) (PhAc-[Chg][Hyp](tBu)[ξ(3-Amino-2-oxopentanoyl)]G[Phg]-NH2), the pKi is 6.00 to 7.00.

As for `CC(C)CC(NC(=O)[C@@H]1C[C@@H](OC(C)(C)C)CN1C(=O)[C@@H](NC(=O)Cc1ccccc1)C1CCCCC1)C(=O)C(=O)NCC(=O)N[C@H](C(N)=O)c1ccccc1` (some centres unmarked) (PhAc-[Chg][Hyp](tBu)[ξLeu(ψCOCO)]G[Phg]-NH2), the pKi was less than 6.00.

As for `CCCC(NC(=O)[C@@H]1C[C@@H](O)CN1C(=O)[C@@H](NC(=O)Cc1ccccc1)C1CCCCC1)C(=O)C(=O)NCC(=O)NC(C(N)=O)c1cc(OC)cc(OC)c1` (some centres unmarked) (PhAc-[Chg][Hyp][X2]G[ξPhg(3,5-(OMe)2)]-NH2), the pKi was 6.00 to 7.00.

As to `CCCC(NC(=O)[C@@H]1C[C@@H](OCc2ccccc2)CN1C(=O)C(NC(=O)Cc1ccccc1)C1CCCCC1)C(=O)C(=O)NCC(=O)N[C@@H](C(N)=O)c1ccccc1` (some centres unmarked) (PhAc-[ξChg][Hyp](Bn)[X2]G[dPhg]-NH2), the pKi was less than 6.00.

With `CCCC(NC(=O)[C@@H]1C[C@@H](OCc2ccccc2)CN1C(=O)C(NC(=O)Cc1ccccc1)C1CCCCC1)C(=O)C(=O)NCC(=O)NC(C(=O)O)c1ccccc1` (some centres unmarked) (PhAc-[ξChg][Hyp](Bn)[X2]G[ξPhg]-OH), the pKi is 7.00 to 9.00.

Turning to `CCCC(NC(=O)[C@@H]1C[C@@H](OC(C)(C)C)CN1C(=O)[C@@H](NC(=O)Cc1ccc(CC(=O)O)cc1)C1CCCCC1)C(=O)C(=O)NCC(=O)N[C@H](C(N)=O)c1ccccc1` (some centres unmarked) (X14-[Chg][Hyp](tBu)[X2]G[Phg]-NH2), the pKi was 7.00 to 9.00.

For `CCC(NC(=O)[C@@H]1C[C@@H](OC(C)(C)C)CN1C(=O)[C@@H](NC(=O)Cc1ccc(CC(=O)O)cc1)C1CCCCC1)C(=O)C(=O)NCC(=O)N[C@H](C(N)=O)c1ccccc1` (some centres unmarked) (X14-[Chg][Hyp](tBu)[ξ(3-Amino-2-oxopentanoyl)]G[Phg]-NH2), the pKi is 6.00 to 7.00.

On to `CCCC(NC(=O)[C@@H]1C[C@@H](OC(C)(C)C)CN1C(=O)[C@@H](NC(=O)Cc1ccccc1CC(=O)O)C1CCCCC1)C(=O)C(=O)NCC(=O)N[C@H](C(N)=O)c1ccccc1` (some centres unmarked) (X17-[Chg][Hyp](tBu)[X2]G[Phg]-NH2), for which the negative-log Ki (pKi) was 7.00 to 9.00.

For the molecule `CCC(NC(=O)[C@@H]1C[C@@H](OC(C)(C)C)CN1C(=O)[C@@H](NC(=O)Cc1ccccc1CC(=O)O)C1CCCCC1)C(=O)C(=O)NCC(=O)N[C@H](C(N)=O)c1ccccc1` (some centres unmarked) (X17-[Chg][Hyp](tBu)[ξ(3-Amino-2-oxopentanoyl)]G[Phg]-NH2), the negative logarithm of the Ki (pKi) was 6.00 to 7.00.

With `CCCCC(NC(=O)C(CCCC)NC(=O)CNC(=O)C(=O)C(CCC)NC(=O)[C@@H]1C[C@@H](OCc2ccccc2)CN1C(=O)C(NC(=O)Cc1ccccc1CC(=O)O)C1CCCCC1)C(N)=O` (some centres unmarked) (X17-[ξChg][Hyp](Bn)[X2]G[ξNle][ξNle]-NH2), the pKi was 6.00 to 7.00.

(Values after US7592316B2, “Peptides as NS3-serine protease inhibitors of hepatitis C virus” (Schering Corporation, priority 2000, dated 2009).)
